# In ChEMBL document CHEMBL4888484, “Replenishing the malaria drug discovery pipeline: Screening and hit evaluation of the MMV Hit Generation Library 1 (HGL1) against asexual blood stage Plasmodium falciparum ,using a nano luciferase reporter read-out” (2022):
# The whole screen tested about 150,000 compounds, of which about 540 (0.36%) showed an effect of 50% or more. Some of the results follow.
# Tested on: Plasmodium falciparum
# Assay: Primary screen in NF54 nanoGlo assay, in single point, at 2uM, 72h; a lower Z score goes with more inhibition
# Format: functional, Erythrocyte
# Details: timepoint 72 hour
Structure (SMILES),% Inhibition [%],Z score
CC(Cc1ccc(F)cc1)NC(C)CN1CCN(C)CC1 (stereo not drawn),5,-0.66
O=C1N[C@](c2ccccc2)(C(F)(F)F)c2ccc3ccccc3c2O1,35,-1.33
Cc1cncc(CN2CCC(CF)CC2)c1,-12,1.15
COc1ccccc1NC(=O)N1C[C@@H]2C[C@H](C1)c1ccc(-c3cncnc3)c(=O)n1C2,15,-1.79
Cn1nc(-c2cccc3c2CCNC3)c2c(Cl)cccc21,-15,1.37
O=C(N[C@@H](C1CCCC1)C(F)(F)F)c1ccc2oc(=O)[nH]c2c1,-5,0.6
O=c1oc2ccccc2n1-c1nc2ccccc2s1,-29,3.42
CC(C)(C)OC(=O)C1CC2CCC1N2Cc1cscn1 (stereo not drawn),-7,0.95
COc1ccc2nc(CN3CC[C@H](O)CC34CCC4)[nH]c2n1,-9,1.39
Cc1ccc(N2C[C@H](c3ccccc3)[C@@H]3[C@H]2C2CCN3CC2)nn1,-12,1.18
O=S(=O)(NC12CCCC1CNC2)c1onc(C2CC2)c1Cl (stereo not drawn),94,-8.97
CC(C)(NCn1c(=O)oc2cc(Br)ccc21)c1ccccc1,-20,3.72
Cc1ccc(C(=O)N[C@H]2COC[C@@H]2N2CCN(C)CC2)cn1,-6,1.08
CC(C)c1noc([C@H](C)Nc2ccc3oc(=O)[nH]c3c2)n1,-1,0.09
O=C(NCC#CCN1CCCCCC1)C1CCC1,-11,1.61
COCC(O)CNC(Cc1ccccc1C)c1ccco1 (stereo not drawn),0,0.06
C[C@H]1CC2(CCN(C(=O)OC(C)(C)C)CC2)CN1,-6,0.9
C[C@H](NC(=O)c1cccc2oc(=O)[nH]c12)c1ccc2c(c1)OCCO2,-8,1.02
CC(C)[C@H]1C=CCN1C(=O)c1ccc(CCN)cc1,-10,1.3
COc1ccc(N2C(=O)NC(=O)C3(Cc4ccccc4N4CCC(c5ccccc5)CC43)C2=O)cc1 (stereo not drawn),-10,1.43
Clc1cnn(CCN2CCC3(CCCC3)C2)c1,-1,0.23
c1ccc(C[C@@H]2COC3(CCNCC3)C2)cc1,-2,0.3

Structure (SMILES),% Inhibition [%],Z score
CC(C)CNC1(c2nn[nH]n2)CCCC1,2,-0.29
CCCN1C[C@@H]2CC[C@H]1CN(C(=O)Cc1cccc(OC)c1)C2,3,-0.64
Cc1ccc(N2CCN3CCNC(=O)[C@@H]3C2)nn1,-7,0.86
CCOC(C)c1nc(CC(=O)N2CC(C)C(N(C)C)C2)cs1 (stereo not drawn),-13,1.94
COc1ccc2c(c1)[C@@]1(CCN(C(=O)C3CCCC3)C1)C(=O)N2C,0,0.04
CCCCN(C(=O)Oc1ccccc1)[C@H]1CCS(=O)(=O)C1,-7,0.64
C[S+](C)c1c([O-])[nH]c(=O)n(-c2ccccc2F)c1=O,-21,2.84
O=C(N[C@H]1CC[C@@H](CS(=O)(=O)F)C1)c1cccs1,-6,0.7
CC1(CO)CCCC1NC1CCCCC1 (stereo not drawn),-6,0.56
Brc1cncc(-c2noc(C34CCCN(CCC3)C4)n2)c1,2,-0.25
COc1ccc(CCN2C(=O)N=C(O)C3(Cc4cccc(F)c4N4CCCC43)C2=O)cc1OC (stereo not drawn),-1,0.07
CN1CCN2c3cccc(Cl)c3CC3(C(=O)NC(=O)N(c4ccc(F)cc4)C3=O)C2C1 (stereo not drawn),4,-0.49
Cc1nc(CC(=O)N2CCN3CCC2C3)c(C)s1 (stereo not drawn),-13,2.25
Cc1nc(C)c(F)c(N2CCC[C@H]2c2cccnc2)n1,-2,0.36
CN1CC[C@H]2CCN(c3nc4ccccc4o3)[C@H]2C1,4,-0.43
CC(C)CC(=O)N1CC[C@@H]2COCCN(C)[C@@H]2C1,-5,0.65
Cc1cccnc1[C@H](C)NC[C@]1(O)CCCN2CCCC[C@@H]21,9,-1.18
O=C(CNc1cccc(Oc2ccccc2)c1)N1CCC2(CC1)OCCO2,-2,0.41
Cc1ccc(-c2cn(CC(=O)NCc3ccccc3C(F)(F)F)c(=O)o2)cc1,-23,2.34
CCOC[C@@H]1CC(F)(F)CN1C1CN(C(=O)Cc2cccc(F)c2)C1,-4,0.64
CCc1cnc(CCN[C@@H](C)Cc2ccsc2)s1,12,-1.71
Cc1ccc(C)n1[C@@H](Cc1cnc[nH]1)C(=O)O,-1,0.15
